{"source": "the supplement of paper PMC8728848", "binders": {"B1": {"name": "Gal 3 (Homo sapiens), P17931 (protein)", "chain": "MADNFSLHDALSGSGNPNPQGWPGAWGNQPAGAGGYPGASYPGAYPGQAPPGAYPGQAPPGAYHGAPGAYPGAPAPGVYPGPPSGPGAYPSSGQPSAPGAYPATGPYGAPAGPLIVPYNLPLPGGVVPRMLITILGTVKPNANILDFQRGNDVAFHFNPRFNENNRRVIVCNTKLDNNWGREESQSVFPFESGKPFKIQVLVEPDHFKVAVNDAHLLQYNHRVKKLNEISKLGISGDIDLTSASYTMI"}}, "test_in_all_cases": "glycan array binding signal (z-score within array); higher = stronger binding", "conditions_in_all_cases": "glycan notation: IUPAC condensed, linker removed; mutation: R186S", "key": {"[1]": {"biological_target": "GlcNAc(b1-4)GlcNAc", "method_in_brief": "(§1)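 Glycan array binding is given as a within-array Z-score, which can be read as non-binding when negative. The arrays, 3228 of them, came from the Consortium for Functional Glycomics database and were retained only where the protein sequence was available. Z-scores were averaged across arrays of the same protein sequence at different concentrations or buffers and across linkers.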"}, "[2]": {"biological_target": "GlcNAc(b1-4)GlcNAc(b1-4)GlcNAc", "method_in_brief": "as §1"}, "[3]": {"biological_target": "GlcNAc(b1-4)GlcNAc(b1-4)GlcNAc(b1-4)GlcNAc(b1-4)GlcNAc", "method_in_brief": "as §1"}, "[4]": {"biological_target": "GlcNAc(b1-4)GlcNAc(b1-4)GlcNAc(b1-4)GlcNAc(b1-4)GlcNAc(b1-4)GlcNAc", "method_in_brief": "as §1"}, "[5]": {"biological_target": "GlcNAc(b1-4)[GlcNAc(b1-6)]GalNAc", "method_in_brief": "as §1"}, "[6]": {"biological_target": "GlcNAc(b1-6)Gal(b1-4)GlcNAc", "method_in_brief": "as §1"}, "[7]": {"biological_target": "GlcNAc(b1-6)GalNAc", "method_in_brief": "as §1"}, "[8]": {"biological_target": "GlcNAc3Prop(b1-4)GlcNAc", "method_in_brief": "as §1"}, "[9]": {"biological_target": "GlcNAc6S(b1-3)Gal(b1-4)GlcNAc", "method_in_brief": "as §1"}, "[10]": {"biological_target": "Kdn(a2-3)Gal(b1-3)GalNAc", "method_in_brief": "as §1"}, "[11]": {"biological_target": "Kdn(a2-3)Gal(b1-3)GlcNAc", "method_in_brief": "as §1"}, "[12]": {"biological_target": "Kdn(a2-3)Gal(b1-4)Glc", "method_in_brief": "as §1"}, "[13]": {"biological_target": "Kdn(a2-3)Gal(b1-4)GlcNAc", "method_in_brief": "as §1"}, "[14]": {"biological_target": "Kdn(a2-3)Gal(b1-4)[Fuc(a1-3)]GlcNAc", "method_in_brief": "as §1"}, "[15]": {"biological_target": "Kdn(a2-6)Gal(b1-4)GlcNAc", "method_in_brief": "as §1"}, "[16]": {"biological_target": "Man(a1-2)Man(a1-2)Man(a1-3)Man", "method_in_brief": "as §1"}, "[17]": {"biological_target": "Man(a1-2)Man(a1-2)Man(a1-6)[Man(a1-3)]Man", "method_in_brief": "as §1"}, "[18]": {"biological_target": "Man(a1-2)Man(a1-3)Man", "method_in_brief": "as §1"}, "[19]": {"biological_target": "Man(a1-2)Man(a1-3)[Man(a1-2)Man(a1-6)]Man", "method_in_brief": "as §1"}, "[20]": {"biological_target": "Man(a1-2)Man(a1-3)[Man(a1-2)Man(a1-6)]Man(a1-6)[Man(a1-2)Man(a1-2)Man(a1-3)]Man", "method_in_brief": "as §1"}, "[21]": {"biological_target": "Man(a1-2)Man(a1-3)[Man(a1-2)Man(a1-6)]Man(a1-6)[Man(a1-2)Man(a1-2)Man(a1-3)]Man(b1-4)GlcNAc(b1-4)GlcNAc", "method_in_brief": "as §1"}, "[22]": {"biological_target": "Man(a1-2)Man(a1-3)[Man(a1-6)]Man(a1-6)[Man(a1-2)Man(a1-3)]Man(b1-4)GlcNAc(b1-4)GlcNAc", "method_in_brief": "as §1"}, "[23]": {"biological_target": "Man(a1-2)Man(a1-6)[Man(a1-3)]Man(a1-6)[Man(a1-2)Man(a1-2)Man(a1-3)]Man", "method_in_brief": "as §1"}, "[24]": {"biological_target": "Man(a1-2)Man(a1-6)[Man(a1-3)]Man(a1-6)[Man(a1-2)Man(a1-2)Man(a1-3)]Man(b1-4)GlcNAc(b1-4)GlcNAc", "method_in_brief": "as §1"}, "[25]": {"biological_target": "Man(a1-3)[Man(a1-6)]Man", "method_in_brief": "as §1"}, "[26]": {"biological_target": "Man(a1-3)[Man(a1-6)]Man(a1-6)[Man(a1-2)Man(a1-3)]Man(b1-4)GlcNAc(b1-4)GlcNAc", "method_in_brief": "as §1"}, "[27]": {"biological_target": "Man(a1-3)[Man(a1-6)]Man(a1-6)[Man(a1-3)]Man", "method_in_brief": "as §1"}, "[28]": {"biological_target": "Man(a1-3)[Man(a1-6)]Man(a1-6)[Man(a1-3)]Man(b1-4)GlcNAc(b1-4)GlcNAc", "method_in_brief": "as §1"}, "[29]": {"biological_target": "Man(a1-3)[Man(a1-6)]Man(b1-4)GlcNAc(b1-4)GlcNAc", "method_in_brief": "as §1"}, "[30]": {"biological_target": "Man(a1-6)Man", "method_in_brief": "as §1"}, "[31]": {"biological_target": "Man(b1-4)GlcNAc", "method_in_brief": "as §1"}, "[32]": {"biological_target": "Neu5Ac(a2-3)Gal", "method_in_brief": "as §1"}, "[33]": {"biological_target": "Neu5Ac(a2-3)Gal(b1-3)GalNAc", "method_in_brief": "as §1"}, "[34]": {"biological_target": "Neu5Ac(a2-3)Gal(b1-3)GalNAc(b1-3)Gal(a1-4)Gal(b1-4)Glc", "method_in_brief": "as §1"}, "[35]": {"biological_target": "Neu5Ac(a2-3)Gal(b1-3)GalNAc(b1-4)[Neu5Ac(a2-3)]Gal(b1-4)Glc", "method_in_brief": "as §1"}, "[36]": {"biological_target": "Neu5Ac(a2-3)Gal(b1-3)GalNAc6S", "method_in_brief": "as §1"}, "[37]": {"biological_target": "Neu5Ac(a2-3)Gal(b1-3)GlcNAc", "method_in_brief": "as §1"}, "[38]": {"biological_target": "Neu5Ac(a2-3)Gal(b1-3)GlcNAc(b1-2)Man(a1-3)[Neu5Ac(a2-3)Gal(b1-3)GlcNAc(b1-2)Man(a1-6)]Man(b1-4)GlcNAc(b1-4)GlcNAc", "method_in_brief": "as §1"}}, "note": "This is one part of the list.", "data": [{"binder": "B1", "values": [{"measurement": "glycan array binding signal (z-score)", "setting": "[1]", "result": -0.09}, {"measurement": "glycan array binding signal (z-score)", "setting": "[2]", "result": -0.058}, {"measurement": "glycan array binding signal (z-score)", "setting": "[3]", "result": -0.092}, {"measurement": "glycan array binding signal (z-score)", "setting": "[4]", "result": -0.063}, {"measurement": "glycan array binding signal (z-score)", "setting": "[5]", "result": -0.089}, {"measurement": "glycan array binding signal (z-score)", "setting": "[6]", "result": -0.076}, {"measurement": "glycan array binding signal (z-score)", "setting": "[7]", "result": -0.058}, {"measurement": "glycan array binding signal (z-score)", "setting": "[8]", "result": -0.07}, {"measurement": "glycan array binding signal (z-score)", "setting": "[9]", "result": -0.024}, {"measurement": "glycan array binding signal (z-score)", "setting": "[10]", "result": -0.067}, {"measurement": "glycan array binding signal (z-score)", "setting": "[11]", "result": -0.07}, {"measurement": "glycan array binding signal (z-score)", "setting": "[12]", "result": -0.004}, {"measurement": "glycan array binding signal (z-score)", "setting": "[13]", "result": -0.081}, {"measurement": "glycan array binding signal (z-score)", "setting": "[14]", "result": -0.008}, {"measurement": "glycan array binding signal (z-score)", "setting": "[15]", "result": -0.071}, {"measurement": "glycan array binding signal (z-score)", "setting": "[16]", "result": -0.067}, {"measurement": "glycan array binding signal (z-score)", "setting": "[17]", "result": -0.058}, {"measurement": "glycan array binding signal (z-score)", "setting": "[18]", "result": -0.024}, {"measurement": "glycan array binding signal (z-score)", "setting": "[19]", "result": -0.05}, {"measurement": "glycan array binding signal (z-score)", "setting": "[20]", "result": -0.058}, {"measurement": "glycan array binding signal (z-score)", "setting": "[21]", "result": -0.078}, {"measurement": "glycan array binding signal (z-score)", "setting": "[22]", "result": -0.1}, {"measurement": "glycan array binding signal (z-score)", "setting": "[23]", "result": -0.069}, {"measurement": "glycan array binding signal (z-score)", "setting": "[24]", "result": -0.034}, {"measurement": "glycan array binding signal (z-score)", "setting": "[25]", "result": -0.071}, {"measurement": "glycan array binding signal (z-score)", "setting": "[26]", "result": -0.063}, {"measurement": "glycan array binding signal (z-score)", "setting": "[27]", "result": -0.062}, {"measurement": "glycan array binding signal (z-score)", "setting": "[28]", "result": -0.04}, {"measurement": "glycan array binding signal (z-score)", "setting": "[29]", "result": -0.039}, {"measurement": "glycan array binding signal (z-score)", "setting": "[30]", "result": -0.04}, {"measurement": "glycan array binding signal (z-score)", "setting": "[31]", "result": -0.058}, {"measurement": "glycan array binding signal (z-score)", "setting": "[32]", "result": -0.061}, {"measurement": "glycan array binding signal (z-score)", "setting": "[33]", "result": -0.069}, {"measurement": "glycan array binding signal (z-score)", "setting": "[34]", "result": 0.003}, {"measurement": "glycan array binding signal (z-score)", "setting": "[35]", "result": -0.089}, {"measurement": "glycan array binding signal (z-score)", "setting": "[36]", "result": -0.065}, {"measurement": "glycan array binding signal (z-score)", "setting": "[37]", "result": -0.051}, {"measurement": "glycan array binding signal (z-score)", "setting": "[38]", "result": -0.094}]}]}
